Part of at least one peptide drawing is inferred or uncertain, most often the ends. Peptide text beside a SMILES is read from it.
What was measured:
Experiment in all cases: Antibacterial assay, minimal inhibitory concentration (MIC), microtiter broth dilution
Format in all cases: cell-based
[1] = system: S. aureus strain ATCC 25923; conditions: S. aureus ATCC 25923; Mueller Hinton broth; 16-20 hours at 37° C.
Text: (§1) Table I, which follows, indicates the Minimal Inhibitory Concentration (MIC) in μg/ml of Peptides (SEQ ID NO:1) through (SEQ ID NO:27 ) against S. aureus strain ATCC 25923, P. aeruginosa strain ATCC 27853, and E.coli ATCC strain 25922. (Legend) The procedure for the antibacterial assay is based upon the guidelines of the National Committee for Clinical Laboratory Standards, Document M7-T2, Volume 8, No. 8, 1988. Stock solutions of the hereinabove described peptides in accordance with the present invention are prepared at a concentration of 512 μg/ml in sterile deionized distilled water and stored at -70° C. The stock peptide solution is diluted in serial dilutions (1:2) down the wells of a microtiter plate so that the final concentrations of peptides in the wells are 0.25, 0.50, 1, 2, 4, 8, 16, 32, 64, 128, and 256 μg/ml. 1-5×10^5 CFUs/ml of either S. aureus ATCC 25923, E. coli ATCC 25922, or P. aeruginosa ATCC 27853 were added to the wells in full strength Mueller Hinton broth (BBL 11443) from a mid-log culture. The inoculum is standardized spectrophotometrically at 600 nm and is verified by colony counts. The plates are incubated for 16-20 hours at 37° C., and the minimal inhibitory concentration (MIC) for each peptide is determined. Minimal inhibitory concentration is defined as the lowest concentration of peptide which produces a clear well in the microtiter plate.

E.coli ATCC strain 25922 = conditions: E. coli ATCC 25922; Mueller Hinton broth; 16-20 hours at 37° C.
Text: as §1

[2] = system: P. aeruginosa strain ATCC 27853; conditions: P. aeruginosa ATCC 27853; Mueller Hinton broth; 16-20 hours at 37° C.
Text: as §1

| SMILES | Minimal Inhibitory Concentration (MIC), Activity, S. aureus [1] | Minimal Inhibitory Concentration (MIC), Activity, E. coli (E.coli ATCC strain 25922) [µg/mL] | Minimal Inhibitory Concentration (MIC), Activity, P. aeruginosa [2] |
| --- | --- | --- | --- |
| CC[C@H](C)[C@H](NC(=O)[C@H](CCCCN)NC(=O)[C@H](CC(C)C)NC(=O)[C@H](C)NC(=O)[C@H](C)NC(=O)[C@H](CCCCN)NC(=O)[C@H](CC(C)C)NC(=O)[C@H](C)NC(=O)[C@H](CCCCN)NC(=O)CNC(=O)[C@H](CC(C)C)NC(=O)[C@H](Cc1ccccc1)NC(=O)[C@H](CO)NC(=O)[C@H](C)NC(=O)CN)C(=O)NCC(=O)N[C@@H](C)C(=O)N[C@@H](CC(N)=O)C(=O)N[C@@H](CC(C)C)C(=O)N[C@@H](CC(C)C)C(=O)NCC(=O)NCC(=O)N[C@H](C(=O)N1CCC[C@H]1C(=O)N[C@@H](CCC(N)=O)C(=O)N[C@@H](CCC(N)=O)C(=O)O)[C@@H](C)O [SEQ ID NO: 1] (H-GASFLGKALKAALKIGANLLGGTPQQ-OH) | 16,32 μg/ml | 16 | 32,64 μg/ml |
| CC[C@H](C)[C@H](NC(=O)[C@H](CCCCN)NC(=O)[C@H](CC(C)C)NC(=O)[C@H](C)NC(=O)[C@H](C)NC(=O)[C@H](CCCCN)NC(=O)[C@H](CC(C)C)NC(=O)[C@H](C)NC(=O)[C@H](CCCCN)NC(=O)CNC(=O)[C@H](CC(C)C)NC(=O)[C@H](Cc1ccccc1)NC(=O)[C@H](CO)NC(=O)[C@H](Cc1ccccc1)NC(=O)CN)C(=O)NCC(=O)N[C@@H](C)C(=O)N[C@@H](CC(N)=O)C(=O)N[C@@H](CC(C)C)C(=O)N[C@@H](CC(C)C)C(=O)NCC(=O)NCC(=O)N[C@H](C(=O)N1CCC[C@H]1C(=O)N[C@@H](CCC(N)=O)C(=O)N[C@@H](CCC(N)=O)C(=O)O)[C@@H](C)O [SEQ ID NO: 2] (H-GFSFLGKALKAALKIGANLLGGTPQQ-OH) | 16 µg/mL | 16 | 64 µg/mL |
| CC[C@H](C)[C@H](NC(=O)[C@H](CCCCN)NC(=O)[C@H](CC(C)C)NC(=O)[C@H](C)NC(=O)[C@H](C)NC(=O)[C@H](CCCCN)NC(=O)[C@H](CC(C)C)NC(=O)[C@H](C)NC(=O)[C@H](CCCCN)NC(=O)CNC(=O)[C@H](CC(C)C)NC(=O)[C@H](Cc1ccccc1)NC(=O)[C@H](C)NC(=O)[C@H](Cc1ccccc1)NC(=O)CN)C(=O)NCC(=O)N[C@@H](C)C(=O)N[C@@H](CC(N)=O)C(=O)N[C@@H](CC(C)C)C(=O)N[C@@H](CC(C)C)C(=O)NCC(=O)NCC(=O)N[C@H](C(=O)N1CCC[C@H]1C(=O)N[C@@H](CCC(N)=O)C(=O)N[C@@H](CCC(N)=O)C(=O)O)[C@@H](C)O [SEQ ID NO: 3] (H-GFAFLGKALKAALKIGANLLGGTPQQ-OH) | 16 µg/mL | 16 | 64 µg/mL |
| CC[C@H](C)[C@H](NC(=O)[C@H](CCCCN)NC(=O)[C@H](CC(C)C)NC(=O)[C@H](C)NC(=O)[C@H](C)NC(=O)[C@H](CCCCN)NC(=O)[C@H](CC(C)C)NC(=O)[C@H](C)NC(=O)[C@H](CC(C)C)NC(=O)CNC(=O)[C@H](CC(C)C)NC(=O)[C@H](Cc1ccccc1)NC(=O)[C@H](CO)NC(=O)CNC(=O)[C@H](Cc1ccccc1)NC(=O)CN)C(=O)NCC(=O)N[C@@H](C)C(=O)N[C@@H](CC(N)=O)C(=O)N[C@@H](CCSC)C(=O)N[C@@H](CC(C)C)C(=O)NCC(=O)NCC(=O)N[C@@H](C)C(=O)N1CCC[C@H]1C(=O)N[C@@H](CCC(N)=O)C(=O)N[C@@H](CCC(N)=O)C(=O)O [SEQ ID NO: 20] (H-GFGSFLGLALKAALKIGANMLGGAPQQ-OH) | – | > 256 | > 256 µg/mL |
